{"source": "the supplement of paper PMC7826260", "note": "The list shows a part of the results. Cleavage of a single-stranded DNA pool by Rep nickase domains was read by sequencing (3 µM enzyme, 1 h, 37 °C); shown is the middle of each 90-letter strand. Values are log2 of uncut reads against the no-enzyme pool; the lower, the more was cut; hits are not called. Counts are relative to all reads, so uncut sequences can rise above 0 when many others are cut."}
{"test_system": "T1, Rep nickase domain of tomato golden mosaic virus", "T1 sequence (protein, residues 1-124, tag omitted)": "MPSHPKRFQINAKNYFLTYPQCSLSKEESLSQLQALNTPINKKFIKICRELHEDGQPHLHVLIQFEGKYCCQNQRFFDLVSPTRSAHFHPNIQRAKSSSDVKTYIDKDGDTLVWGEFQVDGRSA", "assay": "uncleaved DNA left, log2 of reads against the no-enzyme library (log2 ratio); higher = less cleavage (more negative = more Rep cleavage of the k-mer); sequences stand for … in CTCGTCCG…ACCGGAGA", "protocol": "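A pool of 90-nt single-stranded DNAs with seven random bases just before the constant AC of the nick site (name = the seven bases) was cut by 3 µM recombinant His6-SUMO-tagged Rep nickase domain (300 nM DNA, 50 mM HEPES pH 8.0, 50 mM NaCl, 1 mM MnCl2, 1 h, 37 °C, three replicates). Uncut DNA was amplified and sequenced.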"}
{"sequence": "TCGAGGT", "uncleaved DNA left (log2)": -0.0117}
{"sequence": "GTCGACT", "uncleaved DNA left (log2)": -0.14}
{"sequence": "CGAGCGG", "uncleaved DNA left (log2)": 0.0834}
{"sequence": "GTTCTTG", "uncleaved DNA left (log2)": 0.103}
{"sequence": "ATGCATC", "uncleaved DNA left (log2)": -0.166}
{"sequence": "AATAACC", "uncleaved DNA left (log2)": 0.00417}
{"sequence": "GCGTGCT", "uncleaved DNA left (log2)": 0.0581}
{"sequence": "TACTCAG", "uncleaved DNA left (log2)": -0.000987}
{"sequence": "CGGCTTG", "uncleaved DNA left (log2)": -0.0744}
{"sequence": "GATGCCT", "uncleaved DNA left (log2)": -0.0212}
{"sequence": "TGCAAAT", "uncleaved DNA left (log2)": -0.0151}
{"sequence": "CGAGTTA", "uncleaved DNA left (log2)": -0.101}
{"sequence": "CTGTTAT", "uncleaved DNA left (log2)": -0.216}
{"sequence": "CCCATAT", "uncleaved DNA left (log2)": -0.0102}
{"sequence": "ACACCAT", "uncleaved DNA left (log2)": -0.13}
{"sequence": "GAGAAAG", "uncleaved DNA left (log2)": 0.16}
{"sequence": "AGCGGCC", "uncleaved DNA left (log2)": 0.133}
{"sequence": "GGTTGCA", "uncleaved DNA left (log2)": -0.00801}
{"sequence": "AGATATG", "uncleaved DNA left (log2)": -0.0537}
{"sequence": "TTCCCAA", "uncleaved DNA left (log2)": 0.0903}
{"sequence": "GGAGGTA", "uncleaved DNA left (log2)": 0.0939}
{"sequence": "CCTATCG", "uncleaved DNA left (log2)": -0.0388}
{"sequence": "CGACTTA", "uncleaved DNA left (log2)": -0.0275}
{"sequence": "TGGCAGA", "uncleaved DNA left (log2)": 0.0599}
{"sequence": "GATCTTC", "uncleaved DNA left (log2)": 0.0626}
{"sequence": "GTGGGGC", "uncleaved DNA left (log2)": 0.0783}
{"sequence": "TGTGCTA", "uncleaved DNA left (log2)": 0.0229}
{"sequence": "GAGAATC", "uncleaved DNA left (log2)": -0.0388}
{"sequence": "CATCCCT", "uncleaved DNA left (log2)": 0.0283}
{"sequence": "GAACGAC", "uncleaved DNA left (log2)": 0.00508}
{"sequence": "ACGAAAG", "uncleaved DNA left (log2)": 0.107}
{"sequence": "GAGCTCA", "uncleaved DNA left (log2)": 0.0684}
{"sequence": "ACGGGAC", "uncleaved DNA left (log2)": -0.0353}
{"sequence": "AGAGTTG", "uncleaved DNA left (log2)": 0.115}
{"sequence": "AGTCTGG", "uncleaved DNA left (log2)": 0.00892}
{"sequence": "GTCTCCA", "uncleaved DNA left (log2)": 0.0665}
{"sequence": "AGACCAC", "uncleaved DNA left (log2)": -0.147}
{"sequence": "ACTCGCT", "uncleaved DNA left (log2)": 0.0865}
{"sequence": "GGTAAAC", "uncleaved DNA left (log2)": 0.00529}
{"sequence": "CACTGAT", "uncleaved DNA left (log2)": -0.17}
